# Assay results published in PubChem BioAssay AID488969 (Vanderbilt High Throughput Screening Facility, 2010).
# Whole data set: some 110,000 compounds, median “z-score” near -0.1, cut for the highest 2% near 2. The list shows a part of the results. Activity calls are given as the source filed them.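 How the source made its calls: active means z-score in the third read window above 3 or below -3; inactive means the rest.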
# Target: Metabotropic glutamate receptor 8 (Rattus norvegicus) (UniProt P70579)
# Chain of UniProt P70579 (P70579 whole entry, looked up): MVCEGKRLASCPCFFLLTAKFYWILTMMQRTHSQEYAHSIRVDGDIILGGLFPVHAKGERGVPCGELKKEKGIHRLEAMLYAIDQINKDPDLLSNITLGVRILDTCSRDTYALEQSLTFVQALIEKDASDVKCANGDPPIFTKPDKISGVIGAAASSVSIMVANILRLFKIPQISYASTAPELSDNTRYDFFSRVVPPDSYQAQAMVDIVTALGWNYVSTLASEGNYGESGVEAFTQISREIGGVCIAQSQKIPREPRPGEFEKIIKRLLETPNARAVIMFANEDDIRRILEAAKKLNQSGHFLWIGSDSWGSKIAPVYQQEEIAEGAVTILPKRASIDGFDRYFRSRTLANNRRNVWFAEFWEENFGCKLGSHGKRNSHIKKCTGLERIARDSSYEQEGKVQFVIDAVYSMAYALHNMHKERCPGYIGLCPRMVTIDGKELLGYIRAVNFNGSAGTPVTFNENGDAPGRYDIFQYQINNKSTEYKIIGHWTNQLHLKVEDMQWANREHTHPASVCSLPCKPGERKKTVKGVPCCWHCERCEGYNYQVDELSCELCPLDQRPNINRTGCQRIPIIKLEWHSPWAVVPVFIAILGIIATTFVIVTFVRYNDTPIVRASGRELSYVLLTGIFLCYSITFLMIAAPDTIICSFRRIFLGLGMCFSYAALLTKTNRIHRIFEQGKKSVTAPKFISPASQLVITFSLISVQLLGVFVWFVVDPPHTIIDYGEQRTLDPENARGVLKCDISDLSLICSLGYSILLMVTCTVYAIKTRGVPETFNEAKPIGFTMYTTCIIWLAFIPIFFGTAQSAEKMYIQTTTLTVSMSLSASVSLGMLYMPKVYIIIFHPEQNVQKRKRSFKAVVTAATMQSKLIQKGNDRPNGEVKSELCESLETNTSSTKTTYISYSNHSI
# Test: mGluR8 Gi/Go-coupled signaling modulation – cell-based, rat, thallium flux, HTS, primary screen (AID 488969)
# Settings: HEK293 rat mGluR8, GIRK (G protein-gated inwardly rectifying potassium channel) thallium flux, FluoZin2; at 10 µM; stronger effect = higher value; submaximal glutamate (EC20) added with thallium
row,SMILES,z-score
1,O=S(=O)(Cc1ccc(Cl)cc1)c1ccccc1-c1nnc(-c2ccccc2)o1,-0.0704
2,COc1cc(OC)cc(-c2nnc(Nc3nc4c(F)cccc4s3)o2)c1,active: 9.94
3,COc1ccc(-c2cc(C(F)(F)F)nc(N3CCCCC3)n2)cc1OC,1.35
4,COc1ccc(C(=O)c2ccccc2Cl)cc1,-0.198
5,O=C(CN1CCC(NC(=O)c2cccc(F)c2)CC1)NCc1ccccc1F,-0.288
6,CN1C(=O)CC(N2CCN(c3ccc(Cl)c(Cl)c3)CC2)C1=O (centres undefined),0.0378
7,COc1ccc(-c2noc(-c3ccco3)n2)cc1OC,0.0385
8,COc1ccc(NC(=O)COc2ccc(/C=N/NC(=O)c3cccnc3)cc2OC)cc1,-0.161
9,COc1cccc(N2CCN(Cc3nc(N)nc(Nc4ccccc4)n3)CC2)c1,-0.209
10,Cn1c(Cc2ccccc2)nnc1SCC(=O)N1CCCCC1,-0.938
11,CCOC(=O)C1CCN(C(=O)c2ccc(N(C)S(C)(=O)=O)cc2)CC1,0.386
12,Cc1ccc(S(=O)(=O)N(Cc2nccn2C)C(C)C)cc1,0.292
13,COc1ccc2oc(C(=O)c3ccccc3)c(N)c2c1,0.111
14,COc1ccc2cc3cc(C(=O)Nc4ccc5c(c4)OCCO5)oc3nc2c1,-0.0193
15,CC(=O)Nc1cccc(NC(=O)CCc2ccccc2)c1,-0.12
16,CCOC(=O)N1CCN(C(=O)c2cn(CCOC)c(=O)c3c2c2ccccc2n3C)CC1,0.0323
17,CC(=O)Nc1ccc(S(=O)(=O)NCC2CCC(C(=O)NCCC(C)C)CC2)cc1 (centres undefined),-0.0933
18,CCOC(=O)C1CCN(C(=O)c2cn(C)c(=O)c3cc(OC)c(OC)cc23)CC1,0.144
19,CCC/C(=N\NC(=O)CNC(=O)/C=C/c1ccco1)c1ccccc1,-0.408
20,Cc1ccc(OCC(=O)N/N=C\c2c(C)[nH]n(-c3ccccc3)c2=O)c([N+](=O)[O-])c1,-0.329
21,COc1ccc(Cl)cc1N(CC(=O)NCC(C)C)S(=O)(=O)c1ccc(C)c([N+](=O)[O-])c1,0.0721
22,COc1cccc(/C=c2\s/c(=C/C(=O)c3ccc(C)cc3)[nH]c2=O)c1OC,1.51

row,SMILES,z-score
1,Oc1ccc(/C=N/NC2=NCCCCC2)cc1,0.0853
2,CCc1ccc(-c2cc(C(=O)NN3CCOCC3)c3ccccc3n2)cc1,-0.195
3,Cc1ccc(CN2CCc3c(OCC(=O)Nc4cc(C)ccc4C)cccc3C2=O)cc1,-0.206
4,COc1ccc(Cc2nnc(NC(=O)C3CCCO3)s2)cc1OC (centres undefined),-0.138
5,COc1ccc(NC(=S)N/N=C2/CCCc3c(C)cc(C)cc32)cc1,0.0188
6,CCC(C)(C)n1nnnc1C(c1cc2cc(OC)c(OC)cc2[nH]c1=O)N1CCc2ccccc21 (centres undefined),-0.106
7,Cn1c(SCC(=O)c2ccc3c(c2)OCO3)nnc1-c1ccccn1,-0.167
8,Cc1nnc(NC(=O)Cc2cccs2)s1,2.4
9,O=C(CCSCCc1ccccn1)Nc1ccc(Br)cn1,-0.244
10,O=c1cc(CSc2nnnn2-c2ccccc2)[nH]c2[nH]n(-c3ccccc3)c(=O)c12,0.363
11,O=C(COC(=O)c1cc(-c2ccco2)nc2ccccc12)NCc1ccccc1,-0.152
12,Cc1cc(C)n(C(=O)c2cccc(S(=O)(=O)N3CCOCC3)c2)n1,-0.0372
13,N#Cc1ccsc1NC(=O)c1ccccn1,0.527
14,CC(C)(C)c1ccc(CN2N=Nc3ccccc3S2(=O)=O)cc1,0.135
15,O=C(O)/C=C/C(=O)Nc1ccccc1C(=O)Nc1ccccc1,0.317
16,CC1CC(C)CN(CC(=O)N2CCCc3c2c(=O)oc2ccc(OCc4ccccc4)cc32)C1 (centres undefined),0.763
17,CC1CCCCC1NC(=O)c1ccc2c(c1)[nH]c(=O)n2C1CCCC1 (centres undefined),-1.9
18,Cc1ccc(S(=O)(=O)ON2C(=O)c3ccccc3C2=O)c(C)c1,-0.357
19,CC(C)CC(C(=O)OCC(=O)Nc1ncc(Cl)cc1Cl)N1C(=O)c2ccccc2C1=O (centres undefined),-0.273
20,COc1ccc(C(=O)c2cc(C(C)=O)c(Nc3ccccc3)s2)cc1,-0.0397
21,CCCc1[nH]nc2c1C(c1ccncc1)C(C#N)=C(N)O2 (centres undefined),0.292
22,CCc1cccc(C)c1NC(=S)NCC(c1cccnc1)N1CCOCC1 (centres undefined),-0.301

row,SMILES,z-score
1,COc1ccc(C(=O)N[C@H](C(=O)Nc2ccc(OC)nc2)C(C)C)cc1,0.211
2,CCCn1c(-c2cc(OC)c(OC)c(OC)c2)nc2nc3ccccc3nc21,-1.76
3,Cc1ccc(NC(=S)NC2CCN(Cc3ccccc3)CC2)cc1,-0.0128
4,CCN(CC)C(=O)CSc1nc(O)c(Cc2ccccc2)c(=O)n1-c1ccccc1,-0.458
5,Cc1ccc(C)n1-c1ccc(C(=O)N2CCOCC2)cc1,0.198
6,Cc1nc2sc3c(c2c(=O)o1)CCCC3,-0.121
7,COc1ccc(NC(=O)C2C3C=CC(C3)C2C(=O)NCc2ccco2)c(OC)c1 (centres undefined),0.342
8,CC(=O)Nc1ccc(S(=O)(=O)Oc2cccc(N3C(=O)C4CC=CCC4C3=O)c2)cc1 (centres undefined),-0.193
9,C=CCS(=O)(=O)c1nc2ccccc2s1,0.0304
10,CCC1CCCCN1CCNS(=O)(=O)c1ccc2c(c1)CCN2C(C)=O (centres undefined),0.44
11,Cc1ccc(S(=O)(=O)N/N=C\c2cccnc2)cc1,0.22
12,CCOc1cc2oc(=O)c3c(c2cc1Cl)CCC3,-0.228
13,O=C(/C=C/c1cccc([N+](=O)[O-])c1)NCCSCc1ccco1,-0.24
14,COc1ccccc1C(=O)N/N=C(\C)c1ccc(NC(=O)C2CC2)cc1,-0.0805
15,O=C(CCc1nc2ccccc2s1)OCC(=O)N1CCN(C(=O)c2ccco2)CC1,-0.142
16,Cc1ccc(C)c(Cn2c(=O)n(CCC(=O)NCc3ccco3)c(=O)c3sccc32)c1,-0.0143
17,COc1ccc(C(=O)Nc2ccc(Cl)cc2C(=O)N2CCCC(C)C2)cc1OC (centres undefined),-0.274
18,O=C(/C=C/c1ccccc1[N+](=O)[O-])Nc1cccnc1,-0.103
19,CC(C)CCn1c(=O)c(C(=O)N/N=C/c2cccc(F)c2)c(O)c2ccccc21,-0.147
20,O=C1CC(c2ccccc2)CCc2sccc2N1 (centres undefined),0.252
21,CCOC(=O)c1c(-c2ccc(OC)cc2)csc1/N=C/C1=C(O)CCCC1=O,-0.288
22,Cc1c(NC(=O)C(C)N2C(=O)c3ccccc3C2=O)c(=O)n(-c2ccccc2)n1C (centres undefined),0.885

row,SMILES,z-score
1,Cc1cccc(N2CCN(C(=O)NCc3ccc(Cl)cc3)CC2)c1,-0.188
2,O=C(CN1CCOCC1)N/N=C/c1cc2ccccc2nc1Cl,0.0436
3,CCCCNc1ccccc1C(=O)OCC(=O)Nc1ccc(S(N)(=O)=O)cc1,-0.207
4,CC(=O)C1=C(C)NC(SCc2cccc([N+](=O)[O-])c2)=C(C#N)C1c1ccco1 (centres undefined),-0.0757
5,CCS(=O)(=O)n1nc(-c2ccc(Cl)cc2)nc1SCc1ccccc1,0.375
6,Cc1ccc(C(=O)COC(=O)c2cc(Cl)nc3ccccc23)cc1C,-0.159
7,C=CCSC1=C(C#N)C(c2cc(Br)c(O)c(OC)c2)CC(=O)N1 (centres undefined),0.26
8,Cc1c(CCOC(=O)CC23CC4CC(CC(C4)C2)C3)sc[n+]1Cc1ccccc1,0.256
9,Cc1nn2c(c1-c1ccccc1)NC1=C(C(=O)CCC1)C2c1ccccc1 (centres undefined),-0.188
10,O=C(NC1CCS(=O)(=O)C1)Oc1ccccc1 (centres undefined),-0.0372
11,Cn1c(N)c(C#N)c2c(c1=S)CSC(C)(C)C2,-0.0399
12,CCc1ccccc1N1CC(C(=O)O)CC1=O (centres undefined),0.153
13,O=C(Nc1ccc(Oc2ccc3c(c2)C(=O)N(c2ccc(O)cc2)C3=O)cc1)c1cccs1,0.214
14,Cc1c(C(=O)NC(=S)Nc2ccc(NC(=O)c3cccs3)cc2)cccc1[N+](=O)[O-],0.0683
15,Cc1cc(C)cc(OCC(=O)NNC(=O)CCC(=O)NCc2ccccc2)c1,0.00431
16,CCOc1ccc(C(=O)O/N=C(\N)c2ccc([N+](=O)[O-])cc2)cc1OCC,0.434
17,Cc1cccc(NC(=O)COc2cccc3c2CCN(Cc2ccccc2)C3=O)c1C,-0.27
18,CC(Oc1cccc2c1OC(C)(C)C2)C(=O)O (centres undefined),0.766
19,Cc1ccc(S(=O)(=O)NCCC(=O)O)cc1,-0.647
20,Cc1c(Cl)cccc1NC(=O)CNC(=O)c1ccc(F)cc1,0.862
21,Cc1ccc2nsnc2c1NC(=O)c1ccc2c(c1)OCCO2,-0.679
22,Oc1ccc(Cl)cc1-c1cc(-c2cccc(Br)c2)n[nH]1,-0.241

row,SMILES,z-score
1,CCS(=O)(=O)CCSC(=N)N,-0.029
2,COc1cc(NC(=O)COC(=O)Cc2ccc(-c3ccccc3)cc2)cc(OC)c1,-0.324
3,COc1ccc2nc(/N=C(\N)NC(=O)Nc3ccccc3)nc(C)c2c1,-0.147
4,CCOC(=O)N1CCN(S(=O)(=O)c2ccc(Br)s2)CC1,-0.217
5,COc1ccc(C(=O)COC(=O)Cn2nnc3ccccc32)cc1Br,-0.984
6,Cc1c(C(=O)c2ccc(Cl)cc2Cl)cnc2cc3c(cc12)OCO3,-0.247
7,O=C(CN1C(=O)COc2ccccc21)N1CCc2ccccc21,0.0285
8,c1ccc(-c2csc(-n3cnnn3)n2)cc1,-0.379
9,O=c1c2ccccc2c2ccccc2c(=O)n1CC1CCCO1 (centres undefined),-0.00913
10,O=C(O)CC1C(=O)NCCN1CCCc1ccccc1 (centres undefined),0.0778
11,Cc1ccc(-n2ncc(C(=O)N3CCc4ccccc4C3)c2NC(=O)c2ccco2)cc1C,-0.674
12,CCOc1ccc(-c2nnn(CC(=O)NCc3ccco3)n2)cc1,0.0502
13,COc1cc(Cn2c(=O)oc3ccc(C)cc32)ccc1OC(C)C,-0.204
14,CN(c1ccc(OCC(=O)OCC(=O)Nc2ccc(Br)cc2)cc1)S(=O)(=O)c1cccs1,-0.406
15,COc1cc(CNCc2ccccn2)ccc1OCc1ccc(Cl)cc1,0.427
16,CCSc1nnc(NC(=O)CSc2nc(CC)nc3c2c(=O)n(C)c(=O)n3C)s1,-0.256
17,O=[N+]([O-])c1ccc(N2CCCCCC2)c([N+](=O)[O-])c1,-0.000557
18,CCN(CC)c1ccc(/C=N/N(c2ccccc2)c2ccccc2)c(O)c1,0.0821
19,O=C(O)/C=C/C(=O)Nc1ccc(F)cc1F,-0.309
20,O=C(NCc1ccccc1)C(c1ccc(F)cc1)N(Cc1ccc2c(c1)OCO2)C(=O)Cn1nnc(-c2cccs2)n1 (centres undefined),-0.0154
21,COc1ccc(C2(CNC(=O)c3cc([N+](=O)[O-])cc([N+](=O)[O-])c3)CCCC2)cc1OC,-0.226
